According to PubChem BioAssay AID686978 (National Center for Advancing Translational Sciences (NCATS), 2013):
About 64,000 (15%) of roughly 420,000 compounds were called active. Inconclusive means that the source gave no clear call. Such entries were picked first, then a sample of the others. Calls come from the whole dose curve; as a rule, active = well fitted inhibition curve with a large enough effect; inconclusive = small, poorly fitted or top-dose-only effect; inactive = flat fitted curve, though single readings scatter. No potency is given beside an inconclusive call; the fits are too rough.

Experiment: qHTS for Inhibitors of human tyrosyl-DNA phosphodiesterase 1 (TDP1): qHTS in cells in absence of CPT; note: nearly all actives have a fitted effect of over 55% in size
Details: DT40 Tdp1-/- hTDP1 cells, no CPT, ATP luminescence, 48 h; activity change, negative = growth inhibition: at 46.2 µM (top of the series)
Method in brief: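 Stably hTDP1-transfected Tdp1-null chicken DT40 cells were treated with library compounds minus camptothecin and grown for at least 48 hr at 37 °C, after which cellular ATP was quantified by luminescence.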
% is set by controls: 0 for no effect and ±100 for the full control effect; potency is the fitted concentration of half-maximal effect; tags give direction and shape of the fitted curve.

SMILES | Potency | activity change, negative = growth inhibition
O=C(CSc1nncn1-c1ccccc1)NC1CCCc2ccccc21 (stereo not given) | inconclusive [inhibitor, single point] | –
Cc1ccc(-c2nc3ccccn3c2Nc2ccccc2C)o1 | active: 15.8 µM | –
Nc1cc(C(=O)N2CCN(c3ccccc3Cl)CC2)ccc1N1CC2CC(C1)c1cccc(=O)n1C2 (stereo not given) | – | inconclusive: -30.4% [inhibitor]
Cc1cccc(C)c1NC(=O)C(c1ccccc1OC(F)(F)F)N1CCN(c2ccc(F)cc2)CC1 (stereo not given) | inconclusive [inhibitor, single point] | –
CC(C)CC1NC(=O)N(CC(=O)N2CCN(S(=O)(=O)c3ccccc3)CC2)C1=O (stereo not given) | – | inactive: 4.27%
Cc1ccc(C)c(NC(=O)CCN2CCc3ccccc3C2)c1 | inconclusive [inhibitor, single point] | –
COC(=O)CN1C(=O)C2(C(C#N)=C(N)Oc3c2c(C)nn3-c2ccccc2)c2ccccc21 (stereo not given) | active: 20.6 µM | –
COc1ccc(C(=O)/C=C/c2ccc(N(C)C)cc2)c(OC)c1 | active: 10.3 µM | –
Cc1ccc(-c2nn3c(C)nnc3s2)cc1NC(=O)COc1ccc(Cl)cc1 | inconclusive [inhibitor, single point] | –
O=C(NCCc1ccccc1)c1ccc2c(c1)N(Cc1ccccc1Cl)C(=O)c1ccccc1S2 | inconclusive [inhibitor, single point] | –
Cc1nn(Cc2noc(C(=O)NCc3ccc(F)cc3)n2)c(C)c1Br | inconclusive [inhibitor, single point] | –
O=C(COC(=O)C1(c2cccc(F)c2)CCCC1)NCc1ccc2c(c1)OCO2 | inconclusive [inhibitor, single point] | –
CCOC(=O)C1=C(CC)Nc2ccccc2N=C1N | – | inactive: -10.5%
O=C(CSC1=NCCN1)NC(c1ccccc1)c1ccccc1 | active: 20.6 µM | –
COc1ccc(N)cc1C#N | – | inactive: -3.4%
O=c1cc(-c2ccccc2)[nH]n1-c1ccccc1 | inconclusive [inhibitor, single point] | –
Cc1oc(-c2ccc(Cl)cc2)nc1CN1CCC(C(=O)NCc2cccs2)CC1 | inconclusive [inhibitor, partial curve] | –
O=C(Cc1c[nH]c2ccccc12)NCc1ccc(Cl)cc1Cl | – | inactive: 1.17%
Oc1ccc(C[C@@H]2CNCCN2CC2CCCCC2)cc1 | active: 23.1 µM | –
Cc1ccc(N/N=C/c2c(O)cc(C)oc2=O)cc1 | inconclusive [inhibitor, single point] | –
Cc1ccc(C2N(c3cccc(Cl)c3)C(=O)N3CCCN23)cc1 (stereo not given) | inconclusive [inhibitor, single point] | –
COc1ccccc1CNC(=O)C(Cc1ccccc1)NS(=O)(=O)c1ccc2c(c1)oc(=O)n2C (stereo not given) | inconclusive [inhibitor, single point] | –
Cc1cc(C)cc(C(=O)N2CCC3(CC2)NCCc2[nH]cnc23)c1 | – | inactive: -4.29%
CCOc1ccc(/C=N/OCC(=O)NCc2ccco2)cc1 | active: 23.1 µM | –
COc1ccc(S(=O)(=O)N2CCN(C(=O)c3ccc([N+](=O)[O-])o3)CC2)cc1 | active: 20.6 µM | –

SMILES | Potency | activity change, negative = growth inhibition
CCOC(=O)C(CC)Sc1ccc2nnc(-c3ccc(F)cc3)n2n1 (stereo not given) | inconclusive [inhibitor, single point] | –
CSc1ccccc1C(=O)Nc1cccc([N+](=O)[O-])c1 | – | inactive: -3.38%
O=c1oc2ccc(Br)cc2cc1S(=O)(=O)c1ccc(F)cc1 | – | inactive: -112%
COc1ccccc1CC(=O)N1CCCc2ccccc21 | inconclusive [inhibitor, single point] | –
O=C1c2ccc(-c3nc4ccccc4o3)cc2C(=O)N1Cc1ccccc1 | – | inconclusive: -35.9% [inhibitor]
Cc1ccccc1Nc1nnc(-c2ccc(C(=O)NCCO)cc2)c2ccccc12 | – | inactive: -36%
COc1ccc(C)cc1N(C(=O)c1ccco1)C(C(=O)NC1CCCC1)c1cc(OC)c(OC)c(OC)c1 (stereo not given) | inconclusive [inhibitor, single point] | –
COc1ccc(C2=CN(Cc3ccccc3)C(c3ccccc3)CC2=O)cc1 (stereo not given) | inconclusive [inhibitor, single point] | –
O=C(N/N=C/c1cccc([N+](=O)[O-])c1)c1c[nH]c2ccccc12 | – | inconclusive: -35.9% [inhibitor]
CCc1nnc(NC(=O)CSc2nc3c([nH]c4ccccc43)c(=O)n2-c2cc(C)cc(C)c2)s1 | active: 16.4 µM | –
CCCCn1c(=O)[nH]c(=O)c2c1nc(-c1ccccn1)n2CC | – | inactive: -19.3%
COCCCNCC(=O)Nc1sc(C)c(C)c1C(=O)OC | inconclusive [inhibitor, single point] | –
CC1CCCCN1Cc1c(O)ccc2c(=O)c(-c3cccc(Cl)c3)c(C(F)(F)F)oc12 (stereo not given) | – | inactive: -9.1%
Cn1c(=O)cc(OCCCC(=O)NCCC2=CCCCC2)c2ccccc21 | inconclusive [inhibitor, single point] | –
Cn1c2ccccc2c2cc(/C=N/NC(=O)c3ccc(N)cc3)ccc21 | active: 18.4 µM | –
CC(I)CCC(C)[n+]1cccc(I)c1 (stereo not given) | – | inactive: 3.97%
COc1ccc(C(=O)N2CCCC(c3nc(-c4cc(OC)c(OC)c(OC)c4)no3)C2)cc1 (stereo not given) | inconclusive [inhibitor, single point] | –
CC1(C(=O)Nc2cnc3ccccc3c2)CCN1Cc1cc2ccccc2o1 (stereo not given) | active: 14.6 µM | –
O=S(=O)(/C=C/c1ccccc1)N1CCC(n2c(C3CCCO3)nc3cccnc32)CC1 (stereo not given) | – | inactive: -14.8%
Cc1cc(-c2ccco2)c(C#N)c2nc3ccccc3n12 | active: 18.4 µM | –
Cc1ccc(NC(=O)N/C=C/c2ccc(Cl)cc2)cc1 | inconclusive [inhibitor, single point] | –
CCOc1ccc(Cn2c(=O)oc3ccccc32)cc1 | inconclusive [inhibitor, single point] | –
Cc1ccc(S(=O)(=O)N(C)C)cc1NC(=O)CSc1nnc(C2CC2)n1C1CC1 | – | inactive: -0.556%
NC(Cc1c[nH]c2ccccc12)C(=O)O (stereo not given) | inconclusive [inhibitor, single point] | –
O=C(C1CCC(CNS(=O)(=O)c2ccc(Br)s2)CC1)N1CCN(c2ccccc2)CC1 (stereo not given) | inconclusive [inhibitor, partial curve] | –

SMILES | Potency | activity change, negative = growth inhibition
CCn1c2ccccc2c2cc(NC(=O)c3cc(OC)c(OC)c(OC)c3)ccc21 | active: 1.3 µM | –
CCOC(=O)CNc1c(-c2ccc(O)cc2)nc2ccc(Cl)cn12 | – | inconclusive: -31.8% [inhibitor]
Clc1cccc(CNc2ncnc3c2nc2n3CCCC2)c1 | inconclusive [inhibitor, single point] | –
Cc1cc(=O)[nH]c(N2CCN(c3ccc(Cl)cc3)CC2)n1 | inconclusive [inhibitor, single point] | –
Cc1ccc(CN=C(N)Nc2nc(C)cc(C)n2)cc1 | active: 3.26 µM | –
Cc1ccc(C2=CC(=O)C[C@H](c3ccc4c(c3)OCO4)C2)cc1 | inconclusive [inhibitor, single point] | –
CCOC(=O)c1ccc(NC(=S)NCc2ccc(F)cc2)cc1 | inconclusive [inhibitor, single point] | –
COc1ccc(-n2nc(C(=O)NCC(=O)Nc3cc(C)ccc3OC)c3ccccc3c2=O)c(OC)c1 | inconclusive [inhibitor, single point] | –
CC(NC(=O)c1ccc(OC2CCN(S(=O)(=O)N(C)C)CC2)cc1)C1CC1 (stereo not given) | inconclusive [inhibitor, single point] | –
O=C(CCN1CCN(c2ccccc2F)CC1)Nc1ccccc1F | – | inconclusive: -33.3% [inhibitor]
CCOC(=O)Cc1csc(NC(=O)c2ccncc2)n1 | inconclusive [inhibitor, partial curve] | –
C=C1C=C(C)n2ncc(C(=O)Nc3cccc4cnccc34)c2N1 | active: 11.2 µM | –
COc1cccc(CNC(=O)COC(=O)c2ccc(-c3ccc(O)cc3)cc2)c1 | active: 3.26 µM | –
O=C1[C@@H]2C(c3cccnc3)=NO[C@@H]2C(=O)N1c1ccc2ccccc2c1 | active: 18.4 µM | –
COc1ccc(Cl)cc1NC(=O)CCc1nc(-c2ccccc2F)no1 | active: 16.4 µM | –
O=C(CN1CCN(S(=O)(=O)c2ccc(F)cc2)CC1)Nc1ccc(F)cc1F | inconclusive [inhibitor, single point] | –
Cc1ccccc1Nc1nc(N)nc(CSc2n[nH]c(N)n2)n1 | – | inactive: -2.94%
Clc1ccc2nc(-c3ccc(Br)s3)cn2c1 | inconclusive [inhibitor, partial curve, poor fit] | –
CCOc1ccc(N(CC(=O)Nc2cccc(Br)c2)S(C)(=O)=O)cc1 | inconclusive [inhibitor, single point] | –
COc1ccc(S(=O)(=O)NC(C)C(=O)N2CCCC2)cc1Cl (stereo not given) | – | inactive: 2.15%
Cc1ccc(N(C)S(=O)(=O)c2ccc3[nH]cc(C(=O)NCCCN4CCOCC4)c(=O)c3c2)cc1C | – | inactive: -20.6%
CC(=O)Nc1ccc(Sc2ccc([N+](=O)[O-])o2)cc1 | active: 2.59 µM | –
Cc1ccc(CNC(=O)CN(C(=O)C2(C)CC(=O)N=C3C=CC=CN32)c2ccccc2F)cc1 (stereo not given) | – | inconclusive: -21.8% [inhibitor]
C=CCc1c(C)nc2cc(-c3ccc(C)cc3)[nH]n2c1=O | inconclusive [inhibitor, single point] | –
Cc1ccc(C)c(OCc2cc(C(=O)N3CCN(c4ccccc4C)CC3C)no2)c1 (stereo not given) | inconclusive [inhibitor, single point] | –
